In all, about 4,100 sequences were measured (“relative CpG methylation activity (normalised to average over all NNNCGNNN flanks)”: median about 0.94, highest 2% from about 1.9 on). The list shows a part of the results.
Molecular target: DNMT3B catalytic domain (mouse) (UniProt O88509)
Assay: relative CpG methylation activity (normalised to average over all NNNCGNNN flanks) (relative (1 = mean)); higher = more methylation of the central CpG
Settings: system: in vitro, murine catalytic domain; CpG state: hemimethylated substrate pool; residues: 558-859
Method: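 Deep enzymology: a pool of dsDNA substrates with a central CpG flanked by 10 random nucleotides on each side was methylated by the murine DNMT3A or DNMT3B catalytic domain (0.8 mM SAM, 37 °C, 60 min). Methylation was then read out by hairpin ligation, bisulfite conversion and NGS. Values are the average methylation of each NNNCGNNN context (±3 flanks; the outer flanks are random and averaged over), normalised to the overall mean, so 1 = average activity.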

Chain of UniProt O88509 (O88509 558-859): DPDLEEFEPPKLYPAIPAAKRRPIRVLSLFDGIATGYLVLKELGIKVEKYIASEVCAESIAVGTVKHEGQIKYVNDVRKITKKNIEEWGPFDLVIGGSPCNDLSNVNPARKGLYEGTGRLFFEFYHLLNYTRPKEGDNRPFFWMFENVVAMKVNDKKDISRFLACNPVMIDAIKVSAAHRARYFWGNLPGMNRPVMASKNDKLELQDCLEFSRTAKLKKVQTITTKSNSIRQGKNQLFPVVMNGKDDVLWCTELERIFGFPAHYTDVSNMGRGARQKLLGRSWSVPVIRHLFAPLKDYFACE

Sequence	relative CpG methylation activity
GTGCGCCG	1.1
CCGCGGAC	1.06
TCTCGATC	1.65
GTTCGATT	1.32
ACTCGTGT	0.208
AATCGGGT	1.35
CGCCGGCG	1.48
GTTCGCAA	0.436
CTGCGGCC	1.22
CTGCGGGC	1.53
GCTCGCTG	0.49
TGTCGGTT	1.27
AAGCGGAT	0.521
GTTCGGCA	1.88
TTACGAGT	1.74
TCCCGCAT	0.586
TCTCGAAT	1.29
AACCGCGA	0.144
AGACGTAA	0.499
AACCGAAG	0.648
CATCGCCC	1.16
CCACGCAT	0.811
GCTCGGGA	1.17
TGACGACG	1
CCACGATA	1.7

Sequence	relative CpG methylation activity
AGACGATT	1.57
GCGCGACC	0.868
GGTCGCTG	0.526
ATACGTCG	1.35
CCGCGGAG	0.533
CTCCGCGG	1.01
AAACGGCA	1.91
GATCGACA	1.09
ATTCGCTC	1.05
TGACGGCG	1.63
CTGCGACG	1.2
GTACGCCG	1.56
ATTCGTAC	1.14
TCCCGAGC	2.01
GTGCGTGG	0.694
AGCCGCAT	0.147
TTTCGACA	1.5
TCGCGCTA	0.593
CGCCGTCG	0.279
CATCGGTC	1.63
TCCCGATC	1.71
TATCGAAA	1.23
GCTCGCAC	0.632
TATCGACG	1.28
TCACGAGC	1.65

Sequence	relative CpG methylation activity
GAACGACG	1.07
CTCCGAAG	1.4
AATCGTGG	0.186
AGACGACG	1.02
GGTCGGGC	1.65
TATCGCTG	0.608
ATACGGGC	1.93
TACCGCCG	0.618
AAACGTAT	0.956
AGGCGGCC	0.708
GAGCGCGC	0.865
TTCCGCCG	1.36
CTCCGCTT	1.09
GCTCGAGC	1.34
ACCCGGCG	1.53
ACGCGAAT	0.868
GAGCGGGG	0.694
AGTCGGTG	0.863
TTGCGTCC	1.16
GGACGATG	1.08
TGGCGACG	0.659
CCCCGCCA	0.894
AGGCGTCG	0.311
TGTCGCTT	0.573
AATCGGAC	1.01

Sequence	relative CpG methylation activity
CAGCGGCA	1.1
GTGCGAAC	1.32
CCCCGTGC	1.1
CAACGCGA	0.965
GAACGAGA	1.76
AAACGTCA	0.985
ATTCGGTC	1.55
GCCCGCGT	0.48
TTGCGGCA	1.7
CCACGACA	1.48
ACGCGGCA	1.35
TAACGGAG	0.992
GAGCGGTT	0.833
TCACGCAT	0.823
CCGCGAGT	1.14
TTACGGGA	1.92
ACACGTAT	0.757
CATCGGCT	1.78
TAGCGGTA	0.636
TGCCGTGT	0.151
AGACGCTT	1.15
ACGCGGCG	1.29
GGTCGCGC	0.733
CCGCGATT	1.01
TGACGTCA	0.54

Sequence	relative CpG methylation activity
TGTCGATG	1.3
AGTCGCCA	0.76
CATCGTCG	0.688
TCTCGCCT	0.899
CTACGTCG	1.37
ATACGTAG	0.881
TCTCGTAA	0.489
AAACGTAC	1.14
ATGCGTAT	0.627
TGTCGGAT	0.902
GCCCGAAT	1.3
GGTCGAAG	0.845
CTTCGTAC	1.16
AAACGTAG	0.869
ACCCGCCT	0.833
ATCCGTTA	0.67
GAACGCAC	1.11
GTACGCGA	1.14
AAACGGGG	1.56
CTACGCAG	0.984
AGCCGCGG	0.144
ATTCGACA	1.51
GGACGAGT	1.33
GGCCGGTG	0.833
TGACGTAA	0.541

Sequence	relative CpG methylation activity
TACCGGAT	0.685
ACGCGGAG	0.383
GCGCGCCC	0.929
GTGCGGCA	1.66
AAGCGACT	0.72
AAACGGGT	1.45
CATCGCAT	0.619
CACCGCCC	0.68
ACACGGAT	1.11
ATACGAAG	1.39
GACCGCCC	0.598
CAGCGCTG	0.635
AGACGAAT	1.31
GCTCGTCG	0.591
CGCCGGCT	1.19
GCGCGGTT	0.895
GGTCGAGT	1.27
TGCCGGTG	0.867
GTCCGCGA	0.483
GGTCGATT	1.49
GGACGGCA	1.53
CTACGCCT	1.59
TTGCGGTT	0.825
ATTCGTCG	0.579
TGTCGTGT	0.413

Sequence	relative CpG methylation activity
GAGCGGTA	0.881
CTTCGTCC	1.6
AAACGGCC	1.76
CTTCGCGT	1.08
TTGCGCAA	0.608
TTCCGCAA	0.884
AGGCGCAA	0.224
ATCCGAAG	1.04
TCCCGTGC	0.849
GTACGCCT	1.73
CTTCGACC	1.71
CTCCGGAT	1.23
CAGCGCTT	0.781
TTTCGTGT	0.347
GTGCGGGC	1.54
ATGCGCCT	1.15
GTTCGACG	1.54
CAACGGGG	1.39
AAACGCCG	1.33
CGCCGTAT	0.231
GTACGACC	1.61
GGACGTTA	0.659
AGACGTGC	0.61
GGGCGCTA	0.452
AATCGTTC	0.607

Sequence	relative CpG methylation activity
TCCCGCCG	0.883
ACCCGCGA	0.371
AGGCGGCA	0.883
TCGCGCAA	0.463
GATCGCGT	0.655
ATCCGTAA	0.483
GGCCGTGT	0.365
GCACGGCG	1.62
GGACGGCG	1.53
ATACGTTA	0.816
CCTCGTGC	0.665
CCTCGGAA	0.952
ATCCGGAA	1.02
TACCGTAA	0.238
GCGCGGCA	1.52
TTCCGGGC	1.7
TTTCGAGG	1.47
GTCCGCAA	0.669
TCCCGGCT	1.95
TTACGATA	1.94
GTTCGTCG	0.627
GTCCGGCT	1.82
CTCCGCCT	1.22
GGACGGAG	0.502
CACCGCGC	0.452

Sequence	relative CpG methylation activity
CATCGTCC	0.944
AGGCGATC	1.05
TATCGTTG	0.446
TTTCGTCG	0.861
TCCCGCGT	0.535
GGGCGGCA	1.31
TTGCGCGG	0.775
ATGCGCCG	1.04
TCACGATG	1.47
TCGCGGTA	1.02
ATGCGCTC	0.975
CAGCGTTA	0.542
AGTCGGGG	1.15
ACGCGGGG	0.967
CGACGAGC	1.5
TGACGGTA	0.873
CGACGCGG	0.826
AGACGCTC	1.25
CTCCGGCT	1.84

From the supplement of paper PMC7335073
